{"source": "paper PMC8682993", "about": "(Science Advances, 2021)", "binders": {"B1": {"name": "Tau isoform D (C264S) (natural protein)", "chain": "not shown", "modifications": "IPSL (3-(2-iodoacetamido)-PROXYL) spin label on C233 (PRE experiments)"}}, "molecular_target": "full-length yeast Hsp90 (Hsp82) (yeast, UniProt P02829 1-709)", "experiment": "AUC"}
{"binder": "B1", "values": [{"measurement": "binding result", "result": "binds"}]}
